Data from the supplement of paper PMC8728848.
The other results are listed elsewhere or left out.

Columns and labels:
Assay in all cases: glycan array binding signal (z-score within array); higher = stronger binding
Conditions in all cases: glycan notation: IUPAC condensed, linker removed
[1] = target: Fuc(a1-3)[Gal(b1-4)]GlcNAc(b1-4)Gal(b1-4)[Fuc(a1-3)]GlcNAc
How it was run: (§1)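 The binding signal is a Z-score computed within each array. Data were drawn from 3228 arrays in the Consortium for Functional Glycomics database, restricted to those with a known protein sequence. Scores were averaged over arrays of the same protein sequence at different concentrations or buffers, and over linkers, and negative values can be taken as non-binding.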

[2] = target: Fuc(a1-3)[Gal(b1-4)]GlcNAc(b1-4)Gal(b1-4)[Fuc(a1-3)]GlcNAc(b1-4)Gal(b1-4)[Fuc(a1-3)]GlcNAc
How it was run: as §1

[3] = target: Fuc(a1-3)[Gal(b1-4)]GlcNAc(b1-6)GalNAc
How it was run: as §1

[4] = target: Fuc(a1-3)[Gal(b1-4)]GlcNAc(b1-6)[Gal(b1-3)GlcNAc(b1-3)]Gal(b1-4)Glc
How it was run: as §1

[5] = target: Fuc(a1-3)[Gal(b1-4)]GlcNAc(b1-6)[Neu5Ac(a2-3)Gal(b1-3)]GalNAc
How it was run: as §1

[6] = target: Fuc(a1-3)[Gal(b1-4)]GlcNAc6S
How it was run: as §1

[7] = target: Fuc(a1-3)[Gal3S(b1-4)]Glc
How it was run: as §1

[8] = target: Fuc(a1-3)[Gal3S(b1-4)]GlcNAc
How it was run: as §1

[9] = target: Fuc(a1-3)[Gal3S(b1-4)]GlcNAc6S
How it was run: as §1

[10] = target: Fuc(a1-3)[GalNAc(b1-4)]GlcNAc
How it was run: as §1

[11] = target: Fuc(a1-3)[GalNAc(b1-4)]GlcNAc6S
How it was run: as §1

Fuc(a1-4)GlcNAc = target: Fuc(a1-4)GlcNAc
How it was run: as §1

Fuc(b1-3)GlcNAc = target: Fuc(b1-3)GlcNAc
How it was run: as §1

Gal(a1-2)Gal = target: Gal(a1-2)Gal
How it was run: as §1

Gal(a1-3)Gal = target: Gal(a1-3)Gal
How it was run: as §1

Gal(a1-3)Gal(b1-3)GlcNAc = target: Gal(a1-3)Gal(b1-3)GlcNAc
How it was run: as §1

[12] = target: Gal(a1-3)Gal(b1-3)GlcNAc(b1-2)Man
How it was run: as §1

[13] = target: Gal(a1-3)Gal(b1-3)GlcNAc(b1-2)Man(a1-3)[Gal(a1-3)Gal(b1-3)GlcNAc(b1-2)Man(a1-6)]Man(b1-4)GlcNAc(b1-4)GlcNAc
How it was run: as §1

[14] = target: Gal(a1-3)Gal(b1-3)GlcNAc(b1-3)GalNAc
How it was run: as §1

[15] = target: Gal(a1-3)Gal(b1-3)GlcNAc(b1-6)GalNAc
How it was run: as §1

[16] = target: Gal(a1-3)Gal(b1-3)[Fuc(a1-4)]GlcNAc(b1-2)Man(a1-3)[Gal(a1-3)Gal(b1-3)[Fuc(a1-4)]GlcNAc(b1-2)Man(a1-6)]Man(b1-4)GlcNAc(b1-4)GlcNAc
How it was run: as §1

Gal(a1-3)Gal(b1-4)Glc = target: Gal(a1-3)Gal(b1-4)Glc
How it was run: as §1

Gal(a1-3)Gal(b1-4)GlcNAc = target: Gal(a1-3)Gal(b1-4)GlcNAc
How it was run: as §1

[17] = target: Gal(a1-3)Gal(b1-4)GlcNAc(b1-2)Man
How it was run: as §1

[18] = target: Gal(a1-3)Gal(b1-4)GlcNAc(b1-2)Man(a1-3)[Gal(a1-3)Gal(b1-4)GlcNAc(b1-2)Man(a1-6)]Man(b1-4)GlcNAc(b1-4)GlcNAc
How it was run: as §1

[19] = target: Gal(a1-3)Gal(b1-4)GlcNAc(b1-3)GalNAc
How it was run: as §1

[20] = target: Gal(a1-3)Gal(b1-4)GlcNAc(b1-6)GalNAc
How it was run: as §1

[21] = target: Gal(a1-3)Gal(b1-4)[Fuc(a1-3)]GlcNAc
How it was run: as §1

[22] = target: Gal(a1-3)Gal(b1-4)[Fuc(a1-3)]GlcNAc(b1-2)Man(a1-3)[Gal(a1-3)Gal(b1-4)[Fuc(a1-3)]GlcNAc(b1-2)Man(a1-6)]Man(b1-4)GlcNAc(b1-4)GlcNAc
How it was run: as §1

Gal(a1-3)GalNAc = target: Gal(a1-3)GalNAc
How it was run: as §1

[23] = target: Gal(a1-3)[Gal(a1-4)]Gal(b1-4)GlcNAc
How it was run: as §1

[24] = target: Gal(a1-4)Gal(b1-3)GlcNAc(b1-2)Man(a1-3)[Gal(a1-4)Gal(b1-3)GlcNAc(b1-2)Man(a1-6)]Man(b1-4)GlcNAc(b1-4)GlcNAc
How it was run: as §1

Gal(a1-4)Gal(b1-4)Glc = target: Gal(a1-4)Gal(b1-4)Glc
How it was run: as §1

Gal(a1-4)Gal(b1-4)GlcNAc = target: Gal(a1-4)Gal(b1-4)GlcNAc
How it was run: as §1

[25] = target: Gal(a1-4)Gal(b1-4)GlcNAc(b1-2)Man(a1-3)[Gal(a1-4)Gal(b1-4)GlcNAc(b1-2)Man(a1-6)]Man(b1-4)GlcNAc(b1-4)GlcNAc
How it was run: as §1

[26] = target: Gal(a1-4)Gal(b1-4)GlcNAc(b1-3)Gal(b1-4)Glc
How it was run: as §1

Gal(a1-4)GlcNAc = target: Gal(a1-4)GlcNAc
How it was run: as §1

Gal(a1-6)Glc = target: Gal(a1-6)Glc
How it was run: as §1

Gal(b1-2)Gal = target: Gal(b1-2)Gal
How it was run: as §1

Gal(b1-3)Gal = target: Gal(b1-3)Gal
How it was run: as §1

Gal(b1-3)Gal(b1-4)GlcNAc = target: Gal(b1-3)Gal(b1-4)GlcNAc
How it was run: as §1

[27] = target: Gal(b1-3)Gal(b1-4)GlcNAc(b1-2)Man(a1-3)[Gal(b1-3)Gal(b1-4)GlcNAc(b1-2)Man(a1-6)]Man(b1-4)GlcNAc(b1-4)GlcNAc
How it was run: as §1

Gal(b1-3)GalNAc = target: Gal(b1-3)GalNAc
How it was run: as §1

[28] = target: Gal(b1-3)GalNAc(a1-3)[Fuc(a1-2)]Gal(b1-4)Glc
How it was run: as §1

[29] = target: Gal(b1-3)GalNAc(a1-3)[Fuc(a1-2)]Gal(b1-4)GlcNAc
How it was run: as §1

B1: PpFlo2 (Pichia pastoris) (protein)
chain: MGSSHHHHHHSSGLVPRGSHMDDSGNGDNSDTAYGCDITTNAVDGFDATIYQYNANDLRLIRDPTFMSTGYLGRNVLNKISGVTVPGFNIWNPSSRTATVYGVKNVNYYNMVLELKGYFKADVSGDYKLTLSHIDDSSMLFFGKETAFKCCDAGSIPLNEAPTDYSLFTIKPSNQVNSEVISATQYLEAGKYYPVRIVFVNALERARFDFKLTIPSGAVLDDFQNYIYQFGDLDENSCHE
B1 was tested, and the “glycan array binding signal (z-score)” value [1] was 0.371, the “glycan array binding signal (z-score)” value [2] was -0.228 and the “glycan array binding signal (z-score)” value [3] was -0.298. For the same binder, the “glycan array binding signal (z-score)” value [4] was -0.249, the “glycan array binding signal (z-score)” value [5] was -0.343 and the “glycan array binding signal (z-score)” value [6] was -0.297. For the same binder, the “glycan array binding signal (z-score)” value [7] was -0.263, the “glycan array binding signal (z-score)” value [8] was -0.313 and the “glycan array binding signal (z-score)” value [9] was -0.297. For the same binder, the “glycan array binding signal (z-score)” value [10] was -0.293, the “glycan array binding signal (z-score)” value [11] was -0.275 and the “glycan array binding signal (z-score)” value (Fuc(a1-4)GlcNAc) was -0.285. For the same binder, the “glycan array binding signal (z-score)” value (Fuc(b1-3)GlcNAc) was -0.287, the “glycan array binding signal (z-score)” value (Gal(a1-2)Gal) was -0.301 and the “glycan array binding signal (z-score)” value (Gal(a1-3)Gal) was -0.302. For the same binder, the “glycan array binding signal (z-score)” value (Gal(a1-3)Gal(b1-3)GlcNAc) was -0.297, the “glycan array binding signal (z-score)” value [12] was -0.274 and the “glycan array binding signal (z-score)” value [13] was -0.295. The “glycan array binding signal (z-score)” value [14] was -0.3, the “glycan array binding signal (z-score)” value [15] was -0.271 and the “glycan array binding signal (z-score)” value [16] was -0.293. The “glycan array binding signal (z-score)” value (Gal(a1-3)Gal(b1-4)Glc) was -0.3, the “glycan array binding signal (z-score)” value (Gal(a1-3)Gal(b1-4)GlcNAc) was -0.302 and the “glycan array binding signal (z-score)” value [17] was -0.27. For the same binder, the “glycan array binding signal (z-score)” value [18] was -0.213, the “glycan array binding signal (z-score)” value [19] was -0.274 and the “glycan array binding signal (z-score)” value [20] was -0.269. The “glycan array binding signal (z-score)” value [21] was -0.302, the “glycan array binding signal (z-score)” value [22] was -0.276 and the “glycan array binding signal (z-score)” value (Gal(a1-3)GalNAc) was -0.298. The “glycan array binding signal (z-score)” value [23] was -0.291, the “glycan array binding signal (z-score)” value [24] was -0.266 and the “glycan array binding signal (z-score)” value (Gal(a1-4)Gal(b1-4)Glc) was -0.296. For the same binder, the “glycan array binding signal (z-score)” value (Gal(a1-4)Gal(b1-4)GlcNAc) was -0.275, the “glycan array binding signal (z-score)” value [25] was -0.23 and the “glycan array binding signal (z-score)” value [26] was -0.265. For the same binder, the “glycan array binding signal (z-score)” value (Gal(a1-4)GlcNAc) was -0.264, the “glycan array binding signal (z-score)” value (Gal(a1-6)Glc) was -0.301 and the “glycan array binding signal (z-score)” value (Gal(b1-2)Gal) was -0.298. For the same binder, the “glycan array binding signal (z-score)” value (Gal(b1-3)Gal) was -0.296, the “glycan array binding signal (z-score)” value (Gal(b1-3)Gal(b1-4)GlcNAc) was -0.3 and the “glycan array binding signal (z-score)” value [27] was -0.061. The “glycan array binding signal (z-score)” value (Gal(b1-3)GalNAc) was -0.296, the “glycan array binding signal (z-score)” value [28] was -0.3 and the “glycan array binding signal (z-score)” value [29] was -0.298.
